In the supplement of paper PMC12217912:
This is one part of the list. Sequences were assembled here from the parent chain. Values near 0.05 are background.

B1: TEV protease; numbered along this chain (parent)
chain: MGESLFKGPRDYNPISSSICHLTNESDGHTTSLYGIGFGPFIITNKHLFRRNNGTLVVQSLHGVFKVKDTTTLQQHLVDGRDMIIIRMPKDFPPFPQKLKFREPQREERICLVTTNFQTKSMSSMVSDTSCTFPSGDGIFWKHWIQTKDGQCGSPLVSTRDGFIVGIHSASNFTNTNNYFTSVPKNFMELLTNQEAQQWVSGWRLNADSVLWGGHKVFMVKPEEPFQPVKEATQL

Variants of: B1
Assay: raw area under fraction-flipped curve 0-4 h after induction (AUC4h, not background-subtracted), DNA-recorder readout of cleavage of the substrate (dimensionless); higher = more cleavage of the substrate by the protease variant
Details: temperature: 34 °C; time window: 0-4 h after rhamnose induction
Protocol: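 In vivo DNA recorder in E. coli TOP10(DE3) ΔrhaA at 34 °C. Each TEVp single-site mutant (parent TEVp 0) is paired with a single-site variant of the 7-mer TEVs (canonical ENLYFQ|S). The substrate sits between flexible linkers in a Bxb1-sfGFP-TEVs-SsrA fusion, so cleavage stabilises Bxb1 and speeds flipping of a recombination array, read by NGS. The value is the raw area under the fraction-flipped curve over 0-4 h after rhamnose induction (AUC4h), with ≥20 reads per time point. It is not background-subtracted; inactive controls average about 0.047.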
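Note: Bxb1 expression induced with 0.2% (w/v) L-rhamnose at OD600 near 0.5, cultures sampled hourly, flipped fraction per protease–substrate barcode pair counted by paired-end Illumina sequencing.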

Variant | area with substrate ENLAFQS | area with substrate ENLDFQS | area with substrate ENLEFQS | area with substrate ENLFFQS | area with substrate ENLGFQS | area with substrate ENLHFQS | area with substrate ENLIFQS | area with substrate ENLKFQS | area with substrate ENLLFQS | area with substrate ENLNFQS | area with substrate ENLPFQS | area with substrate ENLQFQS | area with substrate ENLRFQS | area with substrate ENLSFQS | area with substrate ENLTFQS | area with substrate ENLVFQS | area with substrate ENLWFQS | area with substrate ENLCFQS | area with substrate ENLMFQS
T174D | 0.0774 | 0.0719 | 0.0528 | 0.0964 | 0.062 | 0.0678 | 0.0698 | 0.0717 | 0.0698 | 0.0715 | 0.0494 | 0.0041 | 0.0524 | 0.0666 | 0.0774 | 0.0845 | 0.0774 | – | –
E25K | 0.0624 | 0.0638 | – | 0.0929 | – | 0.0748 | 0.0945 | 0.0766 | 0.0625 | 0.0598 | 0.054 | 0.0615 | 0.0177 | 0.0615 | – | 0.0871 | – | 0.0435 | 0.0801
F140R | 0.0652 | 0.0688 | 0.0715 | 0.0666 | – | 0.0411 | 0.057 | 0.0619 | 0.0682 | 0.0667 | – | 0.0598 | 0.0629 | 0.0551 | 0.0618 | – | 0.0687 | 0.0527 | 0.0629
L56Y | 0.0642 | 0.0608 | 0.0486 | 0.0558 | 0.0731 | – | 0.0585 | 0.0558 | – | 0.0663 | – | – | – | 0.0578 | – | – | 0.0062 | – | 0.0666
L56W | 0.0624 | 0.06 | 0.0689 | 0.0574 | – | 0.0564 | 0.0601 | 0.0593 | 0.0543 | 0.0613 | 0.0474 | 0.0594 | 0.0562 | 0.0643 | – | – | 0.0563 | 0.0637 | 0.0697
L56Q | – | 0.0552 | 0.048 | – | – | 0.0494 | 0.0205 | 0.0498 | 0.0576 | 0.0196 | 0.0316 | 0.0761 | 0.0659 | 0.0529 | – | – | – | 0.0383 | –
L56T | 0.0468 | – | – | 0.065 | – | 0.0516 | 0.066 | 0.0597 | 0.0736 | 0.0634 | 0.0591 | 0.0492 | – | 0.0505 | 0.071 | 0.0521 | – | – | –
K120H | 0.0648 | 0.0622 | – | 0.0891 | – | 0.074 | – | 0.0768 | – | – | – | 0.0716 | 0.0801 | 0.0711 | – | 0.099 | 0.0706 | 0.0476 | –
P40N | 0.0572 | 0.0474 | 0.0613 | 0.084 | 0.0614 | – | 0.0721 | 0.0857 | – | 0.086 | – | – | 0.086 | 0.0812 | – | – | 0.0669 | – | –
M88W | – | 0.0444 | 0.0567 | 0.0715 | – | 0.0625 | 0.0748 | 0.0858 | 0.0685 | 0.0631 | 0.0532 | 0.0564 | 0.0591 | 0.0572 | – | 0.0782 | – | 0.0628 | 0.0807
E224Y | 0.0648 | – | 0.0674 | 0.0775 | 0.0585 | – | 0.0782 | 0.0802 | – | – | 0.0744 | 0.0973 | 0.0624 | 0.0742 | – | 0.0653 | 0.0586 | 0.0684 | 0.0559
E224V | 0.0737 | 0.0557 | 0.0703 | 0.0897 | 0.0468 | 0.0747 | – | 0.0716 | 0.0456 | 0.0187 | – | – | – | – | – | – | – | 0.0709 | 0.086
P134H | 0.0643 | 0.0635 | 0.0568 | 0.071 | 0.0651 | 0.0589 | 0.0683 | 0.0563 | 0.0651 | 0.0599 | 0.0571 | 0.056 | 0.0664 | 0.0554 | 0.0542 | – | 0.0529 | 0.0682 | –
H168K | 0.0547 | 0.0698 | – | 0.0506 | 0.0778 | 0.0581 | 0.0631 | 0.0692 | – | 0.0639 | 0.0475 | 0.0474 | – | – | – | – | – | 0.0524 | 0.065
H168I | 0.0661 | 0.0601 | 0.0591 | 0.0694 | – | 0.0599 | 0.0653 | 0.0572 | 0.0507 | 0.0507 | 0.0602 | – | 0.0566 | 0.05 | 0.0689 | 0.0392 | 0.0546 | 0.0599 | –
Q105F | 0.0564 | 0.0595 | 0.0647 | 0.0819 | – | 0.0658 | 0.0855 | 0.0698 | 0.0638 | 0.0707 | 0.0662 | 0.0543 | 0.0855 | 0.0609 | 0.0698 | – | 0.0638 | – | –
T23P | 0.062 | 0.0461 | 0.0592 | 0.0475 | – | 0.0513 | 0.0488 | 0.044 | 0.0445 | 0.0376 | 0.0295 | 0.0679 | 0.045 | 0.0459 | – | 0.0499 | 0.0777 | 0.0423 | –
S16Q | 0.0714 | 0.0587 | 0.0665 | 0.0991 | 0.0754 | 0.073 | 0.091 | 0.0776 | 0.0529 | 0.0723 | 0.0596 | 0.0663 | 0.0716 | 0.0526 | 0.0415 | 0.0743 | 0.0677 | 0.0737 | 0.0924
S16C | 0.0984 | 0.0624 | 0.047 | 0.0767 | – | 0.0792 | 0.0863 | 0.0723 | – | 0.064 | 0.0392 | 0.0636 | – | 0.0466 | – | – | 0.084 | – | 0.0673
S16L | 0.0577 | 0.0503 | 0.0517 | 0.0731 | – | 0.066 | – | 0.086 | 0.069 | – | 0.0574 | 0.0781 | 0.0663 | 0.0569 | 0.0752 | – | 0.0704 | – | –
T72S | 0.0615 | – | – | 0.0632 | – | – | – | 0.0424 | 0.0719 | 0.0701 | – | – | – | 0.068 | 0.0644 | 0.0924 | – | 0.0605 | –
P104L | 0.0537 | 0.0551 | 0.0508 | 0.0435 | – | 0.0497 | 0.067 | 0.0513 | 0.0596 | 0.0649 | – | 0.036 | 0.0605 | 0.0497 | – | 0.053 | 0.0511 | – | –
P104I | 0.0604 | 0.067 | 0.0608 | 0.0643 | 0.0558 | 0.0537 | 0.0767 | 0.0616 | 0.061 | 0.0579 | 0.059 | 0.0539 | 0.057 | 0.0439 | 0.0378 | 0.0732 | – | 0.0688 | 0.0565
P104M | 0.0487 | 0.0547 | 0.0464 | 0.0674 | 0.0595 | 0.0563 | 0.0616 | – | 0.0446 | 0.0603 | 0.0438 | 0.0463 | 0.0414 | 0.0486 | – | 0.054 | – | 0.0513 | 0.0501
